# The other results are listed elsewhere or left out. Values come from read counts of a selection and are noisy. Scores sum up all selected molecules that hold the word; the word was not tested alone.
# System: IMP3 KH1-2
# Assay: 6-mer SELEX enrichment z-score vs GST control; IMP3 is the RNA-binding protein IGF2BP3; higher = more enriched by binding
# Conditions: construct: KH1-2 (164-376); SELEX round: R4
# Description: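 SELEX-seq with GST-tagged IMP3 KH1-2 (Pro164-Phe376) and an N40 RNA pool, round 4 (stringent 300/600 mM KCl washes). 6-mer z-score of sequence-tag enrichment normalised to the corresponding GST SELEX round; RNA k-mers written as DNA (T for U).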
# Sequence of IMP3 KH1-2 (chain, as listed by the source): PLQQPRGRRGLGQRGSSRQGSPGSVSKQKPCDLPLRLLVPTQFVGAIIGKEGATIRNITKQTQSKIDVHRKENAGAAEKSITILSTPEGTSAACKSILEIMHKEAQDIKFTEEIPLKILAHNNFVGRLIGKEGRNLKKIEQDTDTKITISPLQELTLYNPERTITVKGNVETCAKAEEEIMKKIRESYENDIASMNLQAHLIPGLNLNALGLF
row,Sequence,6-mer SELEX enrichment z-score
1,GGATTC,0.274
2,GCAAAT,0.297
3,CGATTG,-0.495
4,CTAAGG,-0.223
5,ATATAA,2.28
6,ACGATG,-0.263
7,CAAACA,0.76
8,TTGTCG,-0.005
9,CATATG,1.07
10,ACGTAT,-0.558
11,ACTGAA,0.413
12,TAGCTC,-0.06
13,AGCATA,-0.214
14,TCTTAC,0.214
15,CTTTTA,1.01
16,AAGGTT,-0.17
17,AGGCAC,1.18
18,TAGTAT,0.151
19,TCACAA,1.04
20,TAGCCA,-0.356

row,Sequence,6-mer SELEX enrichment z-score
1,ACTAGC,-0.286
2,TGATTA,0.801
3,ACCGGA,-0.513
4,GTGGAG,0.142
5,CGGCCA,1.96
6,GCAGAT,0.285
7,TGATCC,-0.195
8,CTCAAA,-1.1
9,TCGATG,-0.508
10,CAAGAC,-0.867
11,AATCGA,-1.8
12,TGGACT,-0.103
13,CACACT,2
14,GCGCAT,0.146
15,TATATT,1.55
16,CTAGAG,-0.81
17,GATATA,1.43
18,AGGATA,0.744
19,GTATTA,0.061
20,AGCCCA,-1.43

# — the supplement of paper PMC6531468
